From PubChem BioAssay (NCI)
Where “and” joins values, the source holds several entries; their conditions need not be identical. Identical values can stand only once.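 The compound was tested at five concentrations on cells cultured in 96-well plates, with a 48-hour exposure period. GI50 = concentration required for 50% inhibition of growth. TGI is the concentration that stops growth completely.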 Peptide text beside a SMILES is read from it. * marks the point of attachment. Boc = CC(C)(C)OC(=O)*; OBn = c1ccc(CO*)cc1

system: NCI-H322M lung; experiment: NCI-60 cell line screen, 48 h

| Compound | GI50 | TGI |
| --- | --- | --- |
| CN(C)C1CCN(C(=O)c2ccc(NC(=O)Nc3ccc(-c4nc(N5CCOCC5)nc(N5CCOCC5)n4)cc3)cc2)CC1 | 0.0134 µM and 0.0252 µM | 0.27 µM and 0.186 µM and 0.679 µM |
| C=C1C(=O)[C@@]23CC1C(O)[C@@H](OC(C)=O)[C@@H]2C1(C)C(OC(C)=O)C[C@@H](OC(C)=O)C(C)(C)[C@@H]1C[C@H]3OC(C)=O (stereo not given in full) | > 10 µM and 15.8 µg/mL | > 10 µM and 29.4 µg/mL |
| CCN(CC)C(=S)SNCc1ccc(S(N)(=O)=O)cc1 | – | > 100 µM |
| CCCN1CCN(c2ccc3nc(-c4ccc5nc(-c6cc(OC)ccc6OC)[nH]c5c4)[nH]c3c2)CC1 | 1.87 µM | 3.78 µM |
| CCCCCCCCCCC(O)C1CCC(C(O)CCC(O)C2CCC(CCCCCCC[C@H](O)CC3=C[C@@H](C)OC3=O)O2)O1 (stereo not given in full) | – | > 100 µM |
| Cc1ccc(NC(=O)CC(=O)n2nc(-c3ccccc3)c(N=Nc3ccccc3Cl)c2-c2ccccc2)cc1 | – | > 100 µM |
| CCOc1ccc(Nc2nc(-c3ccc4c(c3)NC(=O)CO4)cs2)cc1 | 50.9 µM | > 100 µM |
| C=C[C@H]1CCC/C=C/[C@@H]2C[C@H](O)C[C@H]2[C@H](O)/C=C/C(=O)O1 | 0.0604 µM | > 83 µM |
| CCC(=O)NC(Nc1ccc(O)cc1)(C(F)(F)F)C(F)(F)F | – | > 100 µM |
| CNn1c(C)n[nH]c1=O | – | > 100 µM |
| Cc1cc(NCCCCCCCCCC[n+]2c(C)cc(N)c3ccccc32)c2ccccc2n1 | – | 18.4 µM |
| c1ccc(Nc2nnc(Cn3ccc4ccccc43)s2)cc1 | – | > 100 µM |
| COC(=O)C12C3C4C5C3(C#N)C1C5(C(=O)OC)C42C(=O)N(C(C)C)C(C)C (stereo not given) | – | > 100 µM |
| COc1cc(Nc2cnc3cc(F)c(F)cc3n2)cc(OC)c1 | – | > 100 µM |
| Nc1cn(Cc2ccccc2)c2nc(/C=C3/C=CC=CC3=O)c(O)n12 | – | > 100 µM |
| CCOC(=O)[C@@H]1ON2O[C@H](OC3CCCC3(c3ccccc3)c3ccccc3)C[C@H]3OC(=O)[C@@H]1C32 (stereo not given in full) | – | > 100 µM |
| CC1=C2C[C@H]3[C@@H](CC=C4C[C@@H](O)CC[C@@]43C)[C@@H]2CC[C@]12O[C@@H]1C[C@H](C)CN[C@H]1[C@H]2C | > 50 µM and 18.9 µM | > 50 µM and 45.3 µM |
| O=[N+]([O-])c1ccc(N=Nc2c(O)ccc3ccccc23)cc1 | – | > 100 µM |
| CCCC(C)C[C@@H](C)CC(C)/C=C(\C)c1oc(=O)c(C)c(O)c1C (stereo not given in full) (tested in a mixture with another compound) | – | 29.9 µM |
| O=C1c2c(ccc3c2CCC3)CC12Cc1cc3c(cc1C2)CCC3 | – | > 100 µM |
| [O-][n+]1onc(-c2ccccc2)c1CN1CCOCC1 | – | > 100 µM |
| Cc1cc(N2CCCC2)nc(NC2CCCC(Nc3ccnc4cc(Cl)ccc34)C2)n1 (stereo not given) | 0.762 µM | 2.64 µM |
| C/C(=N/O)c1cccc(Nc2nc3ccc(Cl)cc3c3[nH]c4ccccc4c23)c1 | – | 2.72 µM |
| OC(C/C(=N\N1CCCCC1)c1cccs1)(C(F)(F)F)C(F)(F)F | – | > 10 µM |

| Compound | GI50 | TGI |
| --- | --- | --- |
| O=C(Nc1ccc(F)cc1)C(=O)C(C1OC(=O)c2ccccc21)[N+](=O)[O-] (stereo not given) | – | > 100 µM |
| O=c1[nH]ccc2nc(N3CCC(O)CC3)nc(Nc3cccc(C(F)(F)F)c3)c12 | 2.28 µM | 29 µM |
| c1cc(OCCN2CCCCC2)ccc1CNc1ccc2nc(CCC3CCCCC3)[nH]c2c1 | 2.87 µM | 10.2 µM |
| COC1OC(C)C(O)CC1OS(=O)(=O)c1ccc(C)cc1 (stereo not given) | – | > 100 µM |
| O=C1c2ccccc2C2(O)NC(=S)N(c3ccccc3)C12O (stereo not given) | – | > 100 µM |
| O=[N+]([O-])c1ccc2[nH]ncc2c1Cl | – | 42.9 µM |
| COc1ccc2c(c1)OC1=C(C(=O)OC1)C2c1cc(OC)c(OC)c(OC)c1 (stereo not given) | 1.27 µM | > 100 µM |
| COc1cc2c(Oc3ccc4[nH]c(C)cc4c3F)ccnc2cc1OCC1(N)CC1 | 2.76 µM | 12.4 µM |
| C1CCN(C2OC3C(COC3N3CCCCC3)OC2OC2CCO[C@@H]2N2CCCCC2)CC1 (stereo not given in full) | – | > 100 µM |
| COC(=O)C1=Cc2cc(OC)c(O)cc2[C@@H](c2ccc(O)c(OC)c2)[C@@H]1C(=O)OC | – | > 100 µM |
| Cc1ccc(Nc2nc(N)nc3c2ncn3C2OC(CO)C(O)C2O)cc1 (stereo not given) | – | > 100 µM |
| N#Cc1sc2c(c1OC(=O)c1cccs1)c(=O)n(-c1ccccc1)c(=S)n2-c1ccccc1 | – | > 100 µM |
| NC1CCCCC1N.O=S(=O)([O-])CCCN1CCOCC1.O=S(=O)([O-])CCCN1CCOCC1.[Pt+4] | 59.4 µM | > 100 µM |
| CCCCCCCCCCCCC(O)C1CCC(C(O)CCCCCCC(O)CCCCCCCC2=CC(C)OC2=O)O1 (stereo not given) | – | > 100 µM |
| O=C(CC12CC3CC(CC(C3)C1)C2)NCCOCCOCCOCCNC(=O)c1cc2c(o1)C(=O)c1ccccc1C2=O | 1.25 µM | 2.57 µM |
| O=c1c2cccnc2cc(-c2ccccc2)n1CCO | – | > 100 µM |
| CN(C(=O)Cc1ccc(Cl)c(Cl)c1)[C@@H]1CCCC[C@H]1[N+]1(C)CC=CC1 | – | > 100 µM |
| Cc1cc(N2CCN(c3ccnc4cc(Cl)ccc34)CC2)nc(NC2CCCCC2)n1 | 4.08 µM | 16 µM |
| COc1c2ccccc2c(OC)c2nc(C)ccc12 | – | > 100 µM |
| O=C1C(=O)c2ccccc2C(O)=C1CN(CCCl)CCCl | – | > 100 µM |
| CCOC(=O)NC(=O)c1cn(CCCOC(=O)CCCCCCCCCCC(=O)OCCCn2cc(C(=O)NC(=O)OCC)c(=O)n(C)c2=O)c(=O)n(C)c1=O | – | > 100 µM |
| CC(NC(=O)CNC(=O)OC(C)(C)C)C(=O)NC(Cc1ccccc1)C(=O)OCc1ccccc1 (stereo not drawn) (Boc-Gly-Ala-Phe-OBn; configuration not given here) | – | > 100 µM |
| CC1(C)CCC[C@@]2(C)C1CC[C@H]1CC(O)C3(C)CCC12C3 (stereo not given in full) | – | 31.5 µM |
| N#Cc1c(Cl)/c(=C/O)c(=O)n2c1nc1ccccc12 | – | > 100 µM |

| Compound | GI50 | TGI |
| --- | --- | --- |
| CCCCc1ccc(-n2c3nc(=O)n(C)c(=O)c-3nc3ccccc32)cc1 | – | 19.6 µM |
| COc1cccc(-c2nc3sccn3c2-c2ccnc(NCCNS(=O)(=O)c3ccccc3)c2)c1 | 4.38 µM | > 100 µM |
| COc1cc(C2=C(C#N)C(N)OC3=C2COc2ccccc23)cc(OC)c1OC (stereo not given) | – | 32.7 µM |
| COC1=C(N2CC2)C(=O)c2nc3n(c2C1=O)CCC3 | – | 4.23 µM |
| COc1cc(NP(=O)(Oc2ccccc2)Oc2ccccc2)ccc1Nc1c2ccccc2nc2c1[nH]c1ccccc12 | – | > 70 µM |
| NC(=N\N=C/c1cccc([N+](=O)[O-])c1)/C(N)=N\N=C/c1cccc([N+](=O)[O-])c1 | > 100 µM | > 100 µM |
| COC(=O)C(=O)C(C(=O)C(=O)Nc1ccccc1C(C)=O)c1nc2ccc(C(=O)c3ccccc3)cc2[nH]c1=O (stereo not given) | – | > 100 µM |
| COc1ccc(/C=C2\CCCCCC2=O)cc1 | – | > 100 µM |
| CCOP(=O)(OCC)c1ccc(=O)[nH]c1-c1cccs1 | – | > 100 µM |
| O=C(C[n+]1ccccc1)N=N/C(C(=O)Nc1c(Cl)c(O)c2ccccc2c1O)=C1/C(=O)Oc2cc(O)ccc2C1=O | – | > 100 µM |
| CN(/N=C/c1ccccn1)C1=NCCCCN1 | – | > 100 µM |
| O=C1c2ccccc2-c2ccc(N=Nc3c(O)ccc4ccccc34)cc21 | – | > 100 µM |
| COc1ccc(C(=O)OC2C=COC(C)C2OC(=O)c2ccc(OC)cc2)cc1 (stereo not given) | – | > 100 µM |
| Cn1nc(-c2ccccc2)nc1[N+](=O)[O-] | – | > 10 µM |
| C=C1CC(C)(COc2ccc3ccc(=O)oc3c2)OC1=O (stereo not given) | – | 26.4 µM |
| O=C([O][Hg][CH2]C1COCC([CH2][Hg][O]C(=O)c2ccccc2)O1)c1ccccc1 (stereo not given) | 16.6 µM | 31.6 µM |
| O=C(Nc1cc[c]([Sb](=[O])([OH])[OH])cc1)c1ccccc1 | > 100 µM | > 100 µM |
| COC(=O)C1[C@@H](C(=O)OC)C12C=Cc1ccccc1C=C2 (stereo not given in full) | – | > 100 µM |
| CC[Si](CC)(CC)OC[C@]1([C@@H]2COC(C)(C)O2)CC=CC(=O)O1 | 25.8 µM | 80.4 µM |
| Cc1cccc(C)c1NC(=O)CCc1nnc2s/c(=C\c3ccc(Cl)cc3)c(=O)n12 | – | > 100 µM |
| CCCn1c(SCC)c2cc3cc4ccccc4cc3cc2c1-c1nc(F)nc(F)n1 | – | > 100 µM |
| COC1CC(OC2CCC3(C)C(CCC45CCC(C6=CC(=O)OC6)C(C)(CCC43)C5=O)C2)OC(C)C1O (stereo not given) | – | > 100 µM |
| O=c1[nH]c2c3ccccc3ccc2c2cc3c(cc12)OCO3 | – | > 100 µM |
